Assay results: PubChem BioAssay AID485364 (National Center for Advancing Translational Sciences (NCATS), 2010)
The whole screen tested about 360,000 compounds, of which about 11,000 (3.1%) were called active. The shares of active, inactive and inconclusive entries below differ from those in the screen. Calls come from the whole dose curve; as a rule, active = well fitted inhibition curve with a large enough effect; inconclusive = small, poorly fitted or top-dose-only effect; inactive = no such curve, though single readings can be large or run the other way. No potency is given beside an inconclusive call; the fits are too rough.

Each compound was assayed against Schistosoma mansoni thioredoxin glutathione reductase (TGR) (UniProt Q962Y6) (assay: qHTS Assay for the Inhibitors of Schistosoma Mansoni Peroxiredoxins). Details: purified TGR, DTNB reduction, TNB absorbance 405 nm; activity change, negative = inhibition: at 114 µM (top of the series) unless noted.
How it was run: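 TGR 20 nM + NADPH 100 uM (dispensed conc.), cpd preinc 15 min RT; start with NADPH (500 uM addition) then DTNB (15 mM addition). Kinetic TNB absorbance, 405 nm filter. Four-parameter Hill fit across titration.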
% is set by controls: 0 for no effect and ±100 for the full control effect; potency is the fitted concentration of half-maximal effect; tags give direction and shape of the fitted curve.
Note: nearly all actives have a fitted effect of over 60% in size.

| Compound | activity change, negative = inhibition | Potency |
| --- | --- | --- |
| CCCS(=O)(=O)N1CCCC(C(=O)NCCN(CC)c2ccccc2)C1 (stereo not given) | inactive: -3.74% |  |
| COc1ccccc1C(=O)NCCC(=O)N(Cc1ccco1)Cc1cccs1 |  | inconclusive [inhibitor, single point] |
| C#CCOCCOCCOCCNc1nc(N2CCN(C(=O)CCCCCCCCCCNC(=O)Cn3cc(CCCCCN)nn3)CC2)nc(N2CCN(C(=O)CCCCCCCCCCNC(=O)[C@@H](CCSC)n3cc(CCO)nn3)CC2)n1 |  | inconclusive [inhibitor, partial curve] |
| COc1ccc(N2C(=O)CC(N3CCN(c4ccccc4F)CC3)C2=O)cc1 (stereo not given) |  | inconclusive [inhibitor, partial curve] |
| CCOC(=O)N1CCC(=NNS(=O)(=O)c2cccc([N+](=O)[O-])c2)CC1 |  | active: 28.2 µM |
| O=C(NC1CCCC1)c1cc(Nc2cccc(C(F)(F)F)c2)nc2ccccc12 | inactive: 1.86% |  |
| CCCCNC(=O)CCCn1c(=O)c2ccccc2n(Cc2cccc(Cl)c2)c1=O | inactive: -6.3% |  |
| CC(C)n1nc(C(=O)Nc2cccc(S(=O)(=O)N3CCOCC3)c2)c2ccccc2c1=O | inactive: -1.22% |  |
| Cc1ccc(C(=O)N2CCN(c3ccc(NC(=O)c4ccc(Br)o4)cc3)CC2)cc1 | inactive: 8.59% |  |
| Cc1ccc(C(CC(=O)NCc2ccco2)c2ccc(OC(C)C)cc2)cc1 (stereo not given) |  | inconclusive [inhibitor, partial curve] |
| Cc1ccnc(S(=O)(=O)Cc2ccc([N+](=O)[O-])cc2)n1 |  | inconclusive [inhibitor, full curve] |
| CC#CC(=O)NC1CCCN(C2Cc3ccccc3C2)C1 (stereo not given) |  | inconclusive [inhibitor, full curve] |
| CC(=O)c1c(C)[nH]c(C(=O)N(C)CC(=O)Nc2ccc(Cl)c(C(F)(F)F)c2)c1C | inactive: -0.92% |  |
| c1cncc(-c2noc(-c3ccc4ccccc4c3)n2)c1 | inactive: 8.07% |  |
| CC(=O)c1ccc(OCCCC(=O)Nc2ccc(S(=O)(=O)N3CCOCC3)cc2)cc1 | inactive: -1.65% |  |
| CN1CCN(S(=O)(=O)c2cccc(C(=O)Nc3sccc3C#N)c2)CC1 |  | inconclusive [inhibitor, full curve] |
| CCN(CC)S(=O)(=O)c1ccc(S(=O)(=O)N2CCC(C(=O)NC3CCN(Cc4ccccc4)CC3)CC2)cc1 |  | inconclusive [inhibitor, single point] |
| CCOc1ccccc1NC1c2ccccc2C(=O)N1Cc1ccco1 (stereo not given) |  | inconclusive [inhibitor, partial curve] |
| Cc1cc(N2C(=O)CC(N3CCN(c4ccc(C(=O)c5cccs5)cc4)CC3)C2=O)no1 (stereo not given) |  | inconclusive [inhibitor, partial curve] |
| O=c1cc(C(F)(F)F)[nH]c(=S)n1-c1ccccc1 |  | active: 22.4 µM |
| CC(C)C(=O)NC(c1ccc(Cl)cc1Cl)c1ccc2cccnc2c1O (stereo not given) |  | inconclusive [inhibitor, single point] |
| Cc1ccc(S(=O)(=O)c2nc(S(C)(=O)=O)sc2N(C)Cc2ccccc2)cc1 |  | inconclusive [inhibitor, partial curve] |
| O=C(Nc1ccc(C(=O)O)cc1)/C(=C\c1ccco1)NC(=O)c1ccco1 |  | inconclusive [inhibitor, partial curve] |
| CCCC(C)NC(=O)c1nc(-c2ccccc2)n(-c2ccccc2)n1 (stereo not given) | inactive: -0.444% |  |

| Compound | activity change, negative = inhibition | Potency |
| --- | --- | --- |
| Cc1ccc(N(C(=O)c2snc(C(N)=O)c2N)C(C(=O)NCC2CCCO2)c2ccc(C)o2)c(C)c1 (stereo not given) |  | inconclusive [inhibitor, partial curve] |
| O=C1NC(=O)N(c2ccc3c(c2)OCO3)C(=O)/C1=C/c1ccc(N2CCCCC2)o1 |  | inconclusive [inhibitor, full curve] |
| CCOC(=O)c1c(NC(=O)c2nc(S(C)(=O)=O)ncc2Cl)sc(C(C)=O)c1C |  | active: 2.24 µM |
| COc1cc(C)c(NC(=O)C2CCN(S(=O)(=O)c3cccs3)CC2)cc1OC |  | inconclusive [inhibitor, partial curve] |
| CN1C(=O)N(C)C(=O)C2(Cc3cc(N)ccc3N3CCN(c4ccccc4F)CC32)C1=O (stereo not given) |  | inconclusive [inhibitor, partial curve] |
| CC1C2(C)OCC(C#N)(C(=N)O2)C1(C#N)C#N (stereo not given) |  | active: 12.6 µM |
| Cc1ccnc(SC2CC(=O)N(c3ccc(C(C)C)cc3)C2=O)n1 (stereo not given) |  | inconclusive [inhibitor, partial curve] |
| COc1cc(/C=C2/C(=O)NN(c3cccc(C)c3)C2=O)ccc1OC(=O)c1ccco1 |  | inconclusive [inhibitor, partial curve] |
| Cc1ccc(N/C=C/C(=O)c2cccs2)cc1 | inactive: 10.2% |  |
| O=C(CSc1nnc(C2CC2)n1-c1ccccc1)NCc1ccco1 |  | inconclusive [inhibitor, partial curve] |
| CN(C)c1ccc(NC2=C(Cl)C(=O)c3ccccc3C2=O)cc1 |  | active: 8.91 µM |
| COc1ccc(NC(=O)c2cc3c(=O)n4ccccc4nc3n2C)cc1OC | inactive: 3.27% |  |
| COc1ccccc1Nc1ccc(Nc2ccccc2OC)nn1 |  | inconclusive [inhibitor, single point] |
| COc1ccc(CCNC(=O)/C=C/c2ccc(S(=O)(=O)N3CCOCC3)cc2)cc1 | inactive: -4.4% |  |
| Cc1c(NN=C(C#N)C#N)c(=O)n(-c2ccccc2)n1C |  | active: 22.4 µM |
| C[C@@H]1CN=C2N(CCNC(=O)CCC3CCCCC3)[C@H](Cc3ccc(O)cc3)CN21 |  | active: 5.01 µM |
| COc1cccc(CNC(=O)C2CCN(S(=O)(=O)c3ccc4c(c3)CCCN4C(C)=O)CC2)c1 | inactive: 2.19% |  |
| Cc1ccc(S(=O)(=O)NCC(=O)OCc2ccccc2Br)cc1 | inactive: 3.28% |  |
| CSCCOC(=O)c1[nH]c2c(c1C)C(=O)CC(c1ccco1)C2 (stereo not given) |  | inconclusive [inhibitor, partial curve] |
| Cc1ccc([C@@H]2[C@@H]3C(=O)N(c4ccccc4)C(=O)[C@@H]3[C@]3(C)C(=O)N(Cc4ccc(-c5ccccc5)cc4)CC(=O)N23)o1 |  | inconclusive [inhibitor, full curve] |
| Cn1c(=O)oc2cc(S(=O)(=O)NCCC(=O)N3CC=C(c4ccccc4)CC3)ccc21 |  | inconclusive [inhibitor, partial curve] |
| O=C(C1COc2ccccc2O1)N1CCN(Cc2ccccc2)CC1 (stereo not given) |  | inconclusive [inhibitor, partial curve] |
| COc1ccc(N2C(=O)NC(=O)/C(=C/c3ccc4c(c3)Cc3ccccc3-4)C2=O)cc1 |  | inconclusive [inhibitor, partial curve, poor fit] |
| CCCCCC(C)NC(=O)c1ccoc1C (stereo not given) |  | inconclusive [inhibitor, partial curve] |

| Compound | activity change, negative = inhibition | Potency |
| --- | --- | --- |
| CC1CCN(c2ccc(NC(=O)Cn3c(=O)oc4ccccc43)cc2)CC1 |  | inconclusive [inhibitor, single point] |
| O=c1c2ccccc2ncn1-c1ccc(Cl)cc1 |  | inactive |
| O=C(Nc1ccccc1Cl)c1sc2cccc(Cl)c2c1Cl | inactive: -8.5% |  |
| CC(C)c1ccc(S(=O)(=O)Nc2ccc(O)c(Sc3ncn[nH]3)c2)cc1 |  | inconclusive [inhibitor, full curve, poor fit] |
| N=c1c2c(-c3ccccc3)c(-c3ccccc3)n(Cc3ccco3)c2ncn1CCO |  | inconclusive [inhibitor, full curve] |
| Cc1coc2c1C(=O)C(=O)c1c-2ccc2c(C)cccc12 |  | active: 8.91 µM |
| Cc1ccc(-c2nn(-c3ccccc3)cc2NC(=O)CCl)cc1 |  | inconclusive [inhibitor, full curve] |
| Cc1cc(OC(=O)c2ccc(Cl)cc2Cl)nc(C)n1 |  | active: 56.2 µM |
| CN1C2CCC1/C(=C\c1ccccc1F)C(=O)/C2=C/c1ccccc1F |  | active: 20 µM |
| O=C1NCCCC2c3c(cc(Br)c(O)c3Br)OC12N1CCCCC1 (stereo not given) |  | active: 22.4 µM |
| C=CCN1C(=O)N/C(=C/c2ccc(C)o2)C1=O |  | active: 31.6 µM |
| COc1cccc(C2C3CN(C)CC=C3C(C#N)=C(N)C2(C#N)C#N)c1OC (stereo not given) |  | inconclusive [inhibitor, full curve, poor fit] |
| COc1ccc(-c2nc(CN3CCN(c4ncccn4)CC3)c(C)o2)cc1C | inactive: 0.814% |  |
| Fc1ccc(C2=CC(c3ccc(F)cc3)n3c(nc4ccccc43)N2)cc1 (stereo not given) |  | inconclusive [inhibitor, partial curve] |
| C/C=C/c1ccc(OCCn2cncn2)c(OC)c1 |  | inconclusive [inhibitor, full curve, poor fit] |
| Cc1cc(C)nc(NN2C(=O)C=CC2=O)n1 |  | inconclusive [inhibitor, full curve, poor fit] |
| Cc1ccc(S(=O)(=O)N2CCOCC2)cc1C(=O)NCCN1C(=O)S/C(=C\c2ccccc2Cl)C1=O | inactive: -8.41% |  |
| COc1cccc2c1C(=O)C=C(C)C2=O |  | inconclusive [inhibitor, partial curve] |
| Cc1sc(NC(=O)/C=C/c2ccco2)c(C(=O)OC(C)C)c1C |  | inconclusive [inhibitor, partial curve] |
| CC(C)(C)C1CCc2sc(-c3nnc(CCl)o3)cc2C1 (stereo not given) |  | inconclusive [inhibitor, full curve] |
| Nc1c(C=C2C=CC(=O)C=C2)c(=O)nc2snc(SCc3ccccc3)n12 | inactive: 0.955% |  |
| COc1cc(OC)c(C2CC(=O)N3CN(c4ccccc4)CSC3=C2C#N)cc1OC (stereo not given) |  | active: 10 µM |
